The structures appear in SMILES notation. The whole screen tested about 340,000 compounds, of which about 6,900 (2%) were called active. No stated cut-off is given here; in the data, active means inhibition above about 30%; inactive means below that, where a call was filed. The list shows a part of the results, in another mix than the full data. The source gives no active or inactive call for entries shown without one.

Chain of UniProt P14416 (P14416 whole entry, looked up): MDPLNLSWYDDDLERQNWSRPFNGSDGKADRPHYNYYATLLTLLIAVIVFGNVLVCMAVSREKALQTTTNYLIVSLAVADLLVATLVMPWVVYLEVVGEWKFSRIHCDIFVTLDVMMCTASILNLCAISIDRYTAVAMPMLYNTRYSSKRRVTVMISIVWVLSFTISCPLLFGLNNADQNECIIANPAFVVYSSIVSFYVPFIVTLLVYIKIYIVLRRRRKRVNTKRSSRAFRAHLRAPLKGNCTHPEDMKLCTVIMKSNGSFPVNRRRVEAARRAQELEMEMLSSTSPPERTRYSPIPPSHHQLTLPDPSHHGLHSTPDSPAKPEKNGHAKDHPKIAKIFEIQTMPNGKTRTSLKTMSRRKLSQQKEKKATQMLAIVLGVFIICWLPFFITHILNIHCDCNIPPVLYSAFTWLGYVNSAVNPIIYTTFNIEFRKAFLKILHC

This test deals with D(2) dopamine receptor (Homo sapiens) (UniProt P14416). Kind of test: HTS Assay for Allosteric Antagonists of the Human D2 Dopamine Receptor: Primary Screen for Antagonists. Further: 0% is about no effect. Particulars: HEK293 TREx D2 cells, calcium flux, dopamine EC80; at 10 µM; stronger effect = higher value. The gist of the method:
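Dopamine at EC80 is the agonist stimulus; test compounds precede it by 180 s. Calcium flux read kinetically in a force-coupled, inducible HEK293 T-REx D2 cell line.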
In general terms: Calcium flux is commonly read through the fluorescence of an indicator in the cells.
As usually defined, the inhibition is the relative decrease from the control value, in per cent. Consider `Cc1cc(OC(C)C(=O)NC2CCN(Cc3ccccc3)CC2)c2c(C)cc(=O)oc2c1` (stereo not given), for which the inhibition is active: 72.9%. In the case of `Cc1ccc(C)c(N2CCN(S(=O)(=O)c3ccc4c(c3)CC(=O)N4C)CC2)c1`, the inhibition was determined as 2.61%. The value for `Cc1ccc(C(=O)COC(=O)c2cccc(NC(=O)c3ccc(Br)cc3)c2)cc1` was -6.07%. In the case of `Brc1cccc(OCCN2CCc3ccccc3C2)c1`, the inhibition was active: 96.1%. Under `COc1cccc(CNC(=O)Cn2c(SCC(=O)Nc3ccc(F)cc3)nc3ccccc32)c1` stands 23.1%; under `Cc1ccc2c(c1)-c1c(c(C(=O)NCCc3ccccc3)nn1C)CS2`, -5.34%; under `Cc1cccc(CS(=O)(=O)Cc2ccc(C(=O)NC(C)c3ccccc3)o2)c1` (stereo not given), 10.9%. The value for `CCCN(C(=O)Cc1c(C(=O)O)[nH]c2ccc(Cl)cc12)c1ccc(OCC)cc1` was -5.54%; that for `CCCCN(CC)CCCNC(=O)C1CCN(c2nc3ccc(CC)cc3s2)CC1` was 1.91%.

With `CCOc1ccc(-c2csc(-c3nc(-c4ccc(Br)s4)cs3)n2)cc1`, the inhibition was -0.439%. Under `Cc1ccc(NC(=O)C2CCN(c3nnc(-n4cccc4)s3)CC2)cc1Cl` stands -3.91%; under `Cc1nnc(SCC(=O)NCc2ccc(N(C)C)cc2)c2nn(-c3ccccc3)c(C)c12`, 2.73%. The value for `CN(CC(=O)Nc1cc(S(=O)(=O)N2CCCC2)ccc1Cl)Cc1ccc2c(c1)OCO2` was active: 31.7%; that for `CNCC(O)c1ccc(O)c(O)c1` (stereo not given) was active: 84.7%. With `COc1cccc(C(c2c(O)cc(C)n(Cc3ccco3)c2=O)N2CCC(C)CC2)c1` (stereo not given), the inhibition turned out to be 4.78%.

With `CN(CCCCOc1ccc(F)cc1)Cc1ccccc1`, the inhibition is active: 33.3%. The value for `O=C(NCc1ccccc1)c1cc2ccccc2o1` was 6.61%; that for `COc1ccc(OC)c2sc(N(Cc3cccnc3)C(=O)c3ccc(C(C)=O)cc3)nc12` was 21.1%; that for `COc1ccccc1C(=O)Nc1ccccc1SCc1cc(=O)c2ccccc2[nH]1` was -13.7%.

For `CCN(CC)C(=O)Cn1c(=O)n(CCCCCC(=O)NCc2ccccc2)c(=O)c2sccc21`, the inhibition is -21%. Regarding `CCOC(=O)N1CCN(C(=O)C(=O)Nc2sc3c(c2C(N)=O)CC(C)(C)OC3)CC1`, the inhibition is active: 33%. On to `O=C(c1ccc2c(c1)N(Cc1ccccc1F)C(=O)c1ccccc1S2=O)N1CCCCC1` (stereo not given), for which the inhibition worked out at 12.2%.

In the case of `CN1CCN(c2ccc(Cl)cc2NC(=O)CC2OC(=O)c3ccccc32)CC1` (stereo not given), the inhibition is active: 38.5%. The value for `Cc1ccn(CC(C)C(=O)O)n1` (stereo not given) was active: 33.9%; that for `O=C(NC1CC(=O)N(c2ccc(F)cc2)C1)C1CCCCC1` (stereo not given) was 8.38%; that for `CCOc1cc(/C=C(\C#N)C(=O)Nc2ccccc2C)ccc1OCc1cc(=O)n2nc(CC)sc2n1` was 1.23%. Under `CCCCCn1c(=N)c(S(=O)(=O)c2ccccc2)cc2c(=O)n3cccc(C)c3nc21` stands -9.15%; under `Cc1cc(Nc2ccc(C(C)C)cc2)nc(-n2nc(C)cc2C)n1`, -7.09%. Under `COc1ccc(NC(=O)CN(C)S(=O)(=O)c2ccc3c(c2)CCCN3C(C)=O)cc1Cl` stands -14.7%; under `CC(C)Oc1cccc(C(=O)Nc2ccc(-c3nc4cc(Cl)cc(Cl)c4o3)cc2)c1`, 4.03%; under `C=CCN(c1ccccc1)S(=O)(=O)c1cccc(C(=O)NC2CCN(Cc3ccccc3)CC2)c1`, active: 66.4%. Turning to `Cc1nnc(SCc2ccccc2Cl)c2cc3occc3n12`, the inhibition is 14.2%. Take `Cc1cccc2sc(N(Cc3cccnc3)C(=O)Cc3ccccc3)nc12`: the inhibition was -26.9%.

For the compound `Cc1ccc(OCC(O)CN2CCN(CC(O)COc3ccc(C)cc3Cl)CC2)c(Cl)c1` (stereo not given), the inhibition is active: 78.4%. Under `Cc1ccc(NC(=O)CSc2nc(-c3cccs3)cc(C(F)(F)F)n2)cc1C` stands 10.5%; under `Oc1c(CN2CCN(c3ccccc3)CC2)cc(Br)c2cccnc12`, active: 59.3%. The value for `COc1cc(-c2noc(-c3ccc(NC4CCCCC4)c([N+](=O)[O-])c3)n2)cc(OC)c1OC` was 23%; that for `CSc1cccc(N2C(=O)N(CC(=O)NCc3ccccc3Cl)c3ccccc3S2(=O)=O)c1` was 1.86%. The value for `COc1ccccc1-n1ncc2c(=O)[nH]c(SCC(=O)Nc3cccc(F)c3)nc21` was -7.97%.

As for `CC(C)CCOc1ccc(Oc2nc(N(C)C)nc(N(C)C)n2)nn1`, the inhibition was -7.7%. The value for `CCOc1ccccc1N(C)C(=O)Cn1cnc2onc(-c3ccc(F)cc3)c2c1=O` was 9.7%. The value for `Cc1ccc(NC(=O)C(Cc2ccccc2)n2cccc2)c(C)c1` (stereo not given) was 4.9%; that for `Cc1cc(=O)n2c(C(=O)Nc3ccc(F)c(Cl)c3)c(C(=O)Nc3cccc(C)c3C)sc2n1` was 10.2%. The value for `COc1ccc(CNC(=O)c2ccc3c(c2)NC(=O)C(CS(=O)(=O)Cc2ccccc2Cl)N3)cc1` (stereo not given) was 8.49%; that for `O=C(c1ccc2c(c1)N(Cc1cccc(Cl)c1)C(=O)c1ccccc1S2(=O)=O)N1CCC(Cc2ccccc2)CC1` was -10.2%. For `CCOc1ccccc1CNC(=O)CN1C(=O)CCn2nc(-c3cn(C)c4ccccc34)cc21`, the inhibition was found to be 1.74%. Under `Cc1nc2ccc(S(=O)(=O)N(CC(=O)Nc3ccc(Cl)cc3)Cc3ccccc3)cc2s1` stands 5.68%; under `COc1cc(Cl)c(C)cc1Nc1c2c(nc3ccccc13)CCC2`, -4.09%; under `CCc1cccc(CC)c1NC(=O)c1c(C)oc2ccc(O)c(CN3CCOCC3)c12`, 6.59%. Under `CCOC(=O)c1cccc(NS(=O)(=O)c2c(C)nc3sc(C)cn3c2=O)c1` stands -6.7%. The value for `Cc1cccc(NC(=O)CSc2cn(CC(=O)N3CCOCC3)c3ccccc23)c1` was 14.2%; that for `COc1ccc(S(=O)(=O)N(CCc2ccccc2)CC(=O)Nc2cc(C)ccc2C)cc1` was -16%. For the compound `CCn1cc(C(=O)NCCOC)c(=O)c2cc(S(=O)(=O)N3CCOCC3)ccc21`, the inhibition amounted to 1.98%.

Regarding `CCc1ccc(NC(=O)C2CCN(S(=O)(=O)c3c(C)noc3/C=C/c3cccs3)CC2)cc1`, the inhibition is 12.7%.

Turning to `CCSc1nnc2c(n1)OC(c1ccc(OCC(=O)O)cc1)Nc1ccccc1-2` (stereo not given), the inhibition is -0.102%. For the compound `O=C(CCC1N=C2c3ccccc3N=C(SCC(=O)Nc3ccccc3F)N2C1=O)NCc1cccs1` (stereo not given), the inhibition was determined as 0.623%. For `CCOC(=O)C1=C(c2ccccc2)Nc2ncnn2C1c1ccc(Cl)cc1` (stereo not given), the inhibition worked out at 20.2%. The value for `COc1ccc(C(=O)CCN2CCN(c3ccccc3F)CC2)cc1` was active: 81.5%; that for `Cc1ccc(SCc2nc(-c3ccc(C(=O)NCc4ccccc4Cl)cc3)oc2C)cc1` was 8.6%; that for `CC(=O)Nc1cccc(NC(=O)C2(c3cccs3)CCOCC2)c1` was 14.1%. `COc1cccc(-c2nnc3n(CCc4ccccc4)c(=O)c4ccccc4n23)c1O`: the inhibition is -19.3%.

On to `CCOC(=O)CC(=O)CSc1nc2ccccc2c(=O)n1CCc1ccccc1`, for which the inhibition worked out at 5.77%. On to `Cn1c(=O)c(=O)n(C)c2cc(N3CCCC3)c(NC(=O)c3ccc(C(C)(C)C)cc3)cc21`, for which the inhibition is -1.31%. As for `COc1ccc(C)cc1NC(=O)C1CCCN(S(=O)(=O)c2ccc3c(c2)oc(=O)n3C)C1` (stereo not given), the inhibition amounted to 8.17%. Regarding `COc1cc(C(=O)NC2CCN(Cc3ccccc3)CC2)cc(Cl)c1OC(C)C`, the inhibition is active: 47.6%. Under `CC(=O)Nc1ccc(S(=O)(=O)N2CCN(c3ccccc3)CC2)cc1` stands -12%; under `Cc1cccc(Cn2c(SCc3ccc(C(=O)NCCc4ccccc4)cc3)nc3cccnc32)c1`, 3.7%; under `CCc1nn(CC(=O)N2CCN(c3cccc(C(F)(F)F)c3)CC2)c(=O)c2cc3occc3n12`, -0.142%. Under `COc1cccc2cc(-c3nnc(-c4ccc(Cl)cc4)o3)c(=O)oc12` stands -19.8%; under `CCCCCn1c(=O)[nH]c2cc(C(=O)Nc3ccc(OC)c(OC)c3)ccc2c1=O`, 2.6%; under `COc1cccc(N2CCN(C(=O)Cn3cnc4onc(-c5ccc(F)cc5)c4c3=O)CC2)c1`, 13.8%. The value for `COc1cccc(-c2nc(CS(=O)(=O)CC(=O)NCCCN3CCN(C)CC3)c(C)o2)c1` was 18.9%; that for `O=C(Nc1ccc(NC(=O)c2ccc(Br)cc2)c(Cl)c1)c1ccc(Br)cc1` was 2.14%.

In the case of `COc1ccc(CNc2oc(COc3cccc(C)c3)nc2C#N)cc1`, the inhibition was -0.945%. Under `COc1ccc(C(=O)Nc2nc3ccc(S(=O)(=O)N4CCCC4)cc3s2)cc1` stands 7.1%. Under `O=C(Nc1ccc(O)c(-c2nc3ccccc3o2)c1)c1cccs1` stands 4.31%.

Take `COc1ccc2oc(=O)cc(CN3CCN(C(=O)c4ccccc4)CC3)c2c1`: the inhibition stood at 6.75%. Under `Cc1ccc(C)c(CN2C(=O)c3ccccc3Sc3ccc(C(=O)NCCCOC(C)C)cc32)c1` stands 1.96%.

As for `O=C(CSc1n[nH]c(-c2ccccc2Cl)n1)N1CCN(c2ccc(F)cc2)CC1`, the inhibition is -14.2%.

On to `CCOC(=O)c1ccc(N2C(=O)c3n[nH]c(C)c3C2c2ccc(C(C)C)cc2)cc1` (stereo not given), for which the inhibition turned out to be 9.03%. The value for `CC(C)c1nn2c(=O)cc(COC(=O)c3ccc(NC(=O)c4ccccc4Cl)cc3)nc2s1` was 19.3%. The value for `Cc1cccc(NS(=O)(=O)c2nnc(NC(=O)C3CCCCC3)s2)c1` was -2.25%; that for `COc1ccc(CNC(=O)c2cc(Nc3ccc(OC)cc3OC)nc3ccccc23)cc1` was -6.22%.

On to `CCOC(=O)c1ccc(NC(=O)c2ccc3c(c2)CCN3S(=O)(=O)c2ccc(Cl)cc2)cc1`, for which the inhibition was 17.6%.

Turning to `COc1cc2[nH]c(=O)n(Cc3ccc(C(=O)N4CCN(c5cccc(C)c5C)CC4)cc3)c(=O)c2cc1OC`, the inhibition turned out to be 17%. On to `COc1ccc(CCNC(=O)Cn2nnc(-c3cccc(C(F)(F)F)c3)n2)cc1OC`, for which the inhibition came to 8.56%. Under `Cc1ccc(-n2nc(CO)c(C(=O)NCCO)n2)cc1` stands 7.45%; under `CC(CNC(=O)c1ccc(Cn2c(SCc3ccccc3)nc3cccnc32)cc1)c1ccccc1` (stereo not given), -16.4%. Under `Cc1ccccc1C(=O)NCc1ccc2c(c1)CCN2C(=O)c1ccccc1` stands -17.8%; under `CCn1c(=O)c2sccc2n2c(CCCC(=O)N3CCN(c4ccccc4OC)CC3)nnc12`, 2.64%; under `CCOC(=O)N1CCC(NC(=O)c2cnn(-c3cccc(C)c3)c2C2CCN(C(=O)OC(C)(C)C)CC2)CC1`, -2.49%. The value for `O=C(c1ccc(F)cc1)N1c2ncnn2C2(CCCCC2)[C@@H]2CCCC[C@@H]21` was 6.43%; that for `COc1ccc(CNC(=O)C(=O)NCC(c2cccs2)S(=O)(=O)c2ccc(C)cc2)cc1` (stereo not given) was 1.12%. Regarding `CCn1c(SCC(=O)Nc2cccc(Cl)c2)nnc1-c1nonc1NC(C)=O`, the inhibition was 2.98%.

On to `CCCC(c1nnnn1CS(=O)(=O)c1ccc(C)cc1)N1CCN(c2ccc(F)cc2)CC1` (stereo not given), for which the inhibition was active: 59.3%.

Values taken from PubChem BioAssay AID485344 (National Center for Advancing Translational Sciences (NCATS), 2010).
